# Laboratory results: the supplement of paper PMC5919970
# Where a name gives a salt, the structure may show the parent alone. The full ranking holds about 2,000 compounds; the median of “fractional viability relative to vehicle” is about 0.92, and the lowest 2% start at about 0.11. The list shows a part of the results.
# System: TYKNU
# Assay: fractional viability relative to vehicle; TYKNU is a high-grade serous ovarian cancer line; higher = less growth inhibition
# Settings: 72 h, genotype: OPA1 knockout (sgOPA1 #2)
# Method in brief: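 TYKNU control cells or lentiCRISPRv2 knockout derivatives were plated at 500 cells per well in duplicate into drug-stamped 384-well plates holding a ~2100-compound library at 2 or 10 μM. Culture was in RPMI 1640 with 10% FBS at 37 °C in 5% CO2, with 72 h of drug treatment. Viability was measured by Cell Titer Glo luminescence, and the averaged duplicate treatment wells were normalised to duplicate control wells at the same plate position.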
Compound,fractional viability (2uM),fractional viability (10uM)
NS(=O)(=O)NCCNc1nonc1/C(=N/O)Nc1ccc(F)c(Br)c1,0.817,0.783
O[C@@H](COc1cccc2ncccc12)CN1CCN(C2c3ccccc3[C@@H]3[C@H](c4ccccc42)C3(F)F)CC1 (stereo not given in full),1.2,0.742
O=S(=O)(NCCNC/C=C/c1ccc(Br)cc1)c1cccc2cnccc12,0.945,0.914
COc1ccc(-c2coc3cc(O)cc(O)c3c2=O)cc1 [Biochanin A],0.959,0.872
COc1ccccc1N1CCN(CCN2C(=O)CC3(CCCC3)CC2=O)CC1,1.11,0.848
OCC(O)CN1CCN(c2ccccc2)CC1 (stereo not given) [Dropropizine],1.09,0.815
CN(C)CCC(c1ccc(Cl)cc1)c1ccccn1 (stereo not given) [Chlorpheniramine Maleate],0.939,1.07
COC1(c2sc3c(N4CCOCC4)nc(-c4cnc(N)nc4)nc3c2C)COC1,0.326,0.324
CCOC(=O)C1=C(C)NC(C)=C(C(=O)OC)C1c1cccc([N+](=O)[O-])c1 (stereo not given) [Nitrendipine],1.17,0.89
Fc1ccc2[nH]ccc2c1-c1nc(N2CCOCC2)c2sc(CN3CCN(CC4CC4)CC3)cc2n1,0.878,0.55
CC(CN1c2ccccc2Sc2ccccc21)N(C)C (stereo not given) [Promethazine HCl],1.11,0.917
CNC(=O)c1ccccc1Sc1ccc2c(/C=C/c3ccccn3)n[nH]c2c1 [Axitinib],1.08,0.832
Cc1ccc(NC(=O)Nc2cc(C(F)(F)F)ccc2F)cc1Nc1ccc2c(c1)NC(=O)/C2=C\c1ccc[nH]1,0.83,0.932
CCOc1cc(N2CCC(O)CC2)ccc1Nc1ncc2c(n1)N(C)c1ccccc1C(=O)N2C,0.911,0.683
O=C(c1ccc(OCCN2CCCCC2)cc1)c1c(-c2ccc(O)cc2)sc2cc(O)ccc12 [Raloxifene HCl],1.1,1.03
CNC(=O)c1ccc(N2C(=S)N(c3cnc(C#N)c(C(F)(F)F)c3)C(=O)C23CCC3)cc1F,1.4,0.95
O=C(Nc1cccc(Cl)c1)Nc1ncc(CCNc2ncnc3ccsc23)s1 [SNS-314 Mesylate],1.21,1.09
Nc1ncnc2c1c(-c1cccc(OCc3ccccc3)c1)cn2C1CC(CN2CCCC2)C1 (stereo not given),0.947,0.248
CN1CCN(c2ccc(C(=O)Nc3n[nH]c4ccc(Cc5cc(F)cc(F)c5)cc34)c(NC3CCOCC3)c2)CC1 [Entrectinib (RXDX-101)],0.712,0.113
CCc1c(C(=O)NCCc2ccc(N3CCCCC3)cc2)[nH]c2ccc(Cl)cc12,0.832,1.09
CNC(=O)CN1CCC(Oc2cc3c(Nc4cccc(Cl)c4F)ncnc3cc2OC)CC1 [AZD8931 (Sapitinib)],0.982,1.18
CCCS(=O)(=O)Nc1ccc(F)c(C(=O)c2c[nH]c3ncc(Cl)cc23)c1F,1.24,0.877
CCN1CCCC1CNC(=O)c1cc(S(=O)(=O)CC)c(N)cc1OC (stereo not given) [Amisulpride],1.28,0.983
Nc1nc(N)nc(-c2cc(Cl)ccc2Cl)n1 [Irsogladine],0.936,0.995

Compound,fractional viability (2uM),fractional viability (10uM)
CC1CCc2cc(F)cc3c(=O)c(C(=O)O)cn1c23 (stereo not given) [Flumequine],0.845,0.926
C[C@@H](O)[C@H]1C(=O)N2C(C(=O)OCOC(=O)C(C)(C)C)=C(SC3CN(C4=NCCS4)C3)[C@H](C)[C@H]12 [Tebipenem Pivoxil],1.11,0.951
CCCCOc1ccc(OCCCN2CCOCC2)cc1 [Pramoxine HCl],1.14,1
COc1c(O)cc2c(c1O)[C@@H]1O[C@H](CO)[C@@H](O)[C@H](O)[C@H]1OC2=O [Bergenin],1.18,0.976
Nc1cccc(-c2cc3c(Oc4cccc(O)c4)ncnc3[nH]2)c1,1.38,0.937
CC(C)[C@H]1CC[C@H](C(=O)N[C@H](Cc2ccccc2)C(=O)O)CC1 [Nateglinide],0.956,0.914
COc1ccc(-n2nc(C(N)=O)c3c2C(=O)N(c2ccc(N4CCCCC4=O)cc2)CC3)cc1 [Apixaban],1.03,1.14
COc1ccc(C(C)=O)c(O)c1 [Paeonol],1.19,0.933
COc1ccccc1OCCNCC(O)COc1cccc2[nH]c3ccccc3c12 (stereo not given) [Carvedilol],0.985,0.674
CC(C)c1nc(CN(C)C(=O)N[C@H](C(=O)N[C@@H](Cc2ccccc2)C[C@H](O)[C@H](Cc2ccccc2)NC(=O)OCc2cncs2)C(C)C)cs1 [Ritonavir],1.05,1.02
Cc1nc2ccc(-n3ncc(C(=O)c4cc5ccccc5[nH]4)c3N)cc2[nH]1,0.778,0.938
CCCCC(=O)O[C@H]1CC[C@H]2[C@@H]3CCc4cc(O)ccc4[C@H]3CC[C@]12C [Estradiol valerate],1.04,0.369
N#Cc1c(O)c2c(-c3ccc(-c4ccccc4O)cc3)csc2[nH]c1=O,1.07,1.07
N=C(N)c1ccc(OCCCCCOc2ccc(C(=N)N)cc2)cc1 [Pentamidine],0.854,0.621
Cc1[nH]c2ccccc2c1CCNC(=O)c1cccs1,0.809,0.942
O=c1cc(-c2cccc3c2Sc2ccccc2S3)oc(N2CCOCC2)c1,1.25,1.2
Fc1ccc(C(c2ccc(F)cc2)N2CCN(C/C=C/c3ccccc3)CC2)cc1 [Flunarizine 2HCl],0.836,0.759
Oc1ccc([C@H]2COc3cc(O)ccc3C2)cc1 [Equol],0.956,0.833
Cc1ccc(Nc2c(F)cccc2Cl)c(CC(=O)O)c1 [Lumiracoxib],0.828,0.865
O=C([C@@H](Cc1cccc(C(F)(F)F)c1)NS(=O)(=O)c1cc(F)c2c(c1)CCNC2)N1CCCC1,0.855,0.889
Nc1nc(Cl)nc2c1ncn2[C@H]1C[C@H](O)[C@@H](CO)O1 [Cladribine],0.96,0.613
O=C(C=Cc1ccccc1)NC(NC(=S)Nc1ccc(Cl)cc1)C(Cl)(Cl)Cl (stereo not given),0.891,0.336
Cc1nc(Nc2cnn(C3CCNCC3)c2)nc2c1N(C)C(=O)c1cc3ccccc3cc1N2C,0.8,0.647
OCCOCCN1CCN(C2=Nc3ccccc3Sc3ccccc32)CC1 [Quetiapine Fumarate],1.14,0.988

Compound,fractional viability (2uM),fractional viability (10uM)
COc1cccc2c1C(=O)c1c(O)c3c(c(O)c1C2=O)C[C@@](O)(C(=O)CO)C[C@@H]3O[C@H]1C[C@H](N)[C@H](O)[C@H](C)O1 [Doxorubicin (Adriamycin)],0.738,0.726
CC1(C)S[C@@H]2[C@H](NC(=O)[C@H](N)c3ccc(O)cc3)C(=O)N2[C@H]1C(=O)O [Amoxicillin Sodium],0.994,0.909
CC1(C)S[C@@H]2[C@H](NC(=O)[C@H](N)c3ccc(O)cc3)C(=O)N2[C@H]1C(=O)O [Amoxicillin],0.956,0.882
Cc1cc(C(=O)NOCCO)c(Nc2ccc(I)cc2F)n(C)c1=O,0.504,0.43
COc1ccccc1C(=O)Nc1cc2c(cc1N1CCCC1)n(C)c(=O)n2C,0.874,1.14
O=C(CCc1ccc(O)cc1)c1c(O)cc(O)cc1O[C@@H]1O[C@H](CO)[C@@H](O)[C@H](O)[C@H]1O [Phlorizin],0.803,0.881
C=C[C@]1(C)C[C@@H](OC(=O)CS[C@@H]2C[C@H]3CC[C@@H](C2)N3C)[C@]2(C)[C@H](C)CC[C@]3(CCC(=O)[C@H]32)[C@@H](C)[C@@H]1O [Retapamulin],1.33,1.33
Oc1ncnc2[nH]ncc12 [Allopurinol],1.17,1.11
CN(N=O)C(=O)NC1C(O)OC(CO)C(O)C1O (stereo not given) [Streptozotocin (STZ)],0.956,1.02
C=CC(=O)Nc1cccc(C)c1Nc1ncc2cc(-c3c(Cl)c(OC)cc(OC)c3Cl)ccc2n1,0.676,0.37
C[C@]12CCC(=O)C=C1CC[C@@H]1[C@@H]2[C@@H](O)C[C@@]2(C)[C@H]1CC[C@]2(O)C(=O)CO [Hydrocortisone],1.25,1.06
COc1ccc(CCN(C)CCCC(C#N)(c2ccc(OC)c(OC)c2)C(C)C)cc1OC (stereo not given) [Verapamil HCl],1.04,0.965
Cc1onc(-c2ccccc2)c1-c1ccc(S(N)(=O)=O)cc1 [Valdecoxib],1.06,0.899
CCCc1cc(=O)[nH]c(=S)[nH]1 [Propylthiouracil],1.01,0.889
O=C(Nc1ccccc1)c1cc([N+](=O)[O-])ccc1Cl,1.11,0.918
C=C1C(=O)O[C@@H]2/C=C(\C)CC/C=C(\C)CC[C@@H]12 [Costunolide],1.15,0.522
CO/N=C(\C(=O)N[C@@H]1C(=O)N2C(C(=O)OCOC(=O)C(C)(C)C)=C(/C=C\c3scnc3C)CS[C@H]12)c1csc(N)n1 [Cefditoren Pivoxil],0.91,0.921
COc1ccc([C@@H]2CC(=O)c3c(O)cc(O[C@@H]4O[C@H](CO[C@@H]5O[C@@H](C)[C@H](O)[C@@H](O)[C@H]5O)[C@@H](O)[C@H](O)[C@H]4O)cc3O2)cc1O [Hesperidin],1.16,1.06
O=c1cc(N2CCOCC2)oc2c(-c3cccc4c3sc3ccccc34)cccc12,0.867,0.693
CC(C)(C(=O)O)c1ccc(C(O)CCCN2CCC(C(O)(c3ccccc3)c3ccccc3)CC2)cc1 (stereo not given) [Fexofenadine HCl],1.01,0.867
O=C[C@H](O)[C@@H](O)[C@H](O)CO [Xylose],1.16,1.08
CC(=O)O[C@]1(C(C)=O)CC[C@H]2[C@@H]3C[C@H](C)C4=CC(=O)C=C[C@]4(C)[C@@]3(F)[C@@H](O)C[C@@]21C [Fluorometholone Acetate],0.964,1.03
